Measurements taken from the supplement of paper PMC4166925.
± gives the standard deviation of the averaged measurements. Whole data set: some 33,000 sequences, median “E-score (dimensionless, -0.5 to 0.5)” near -0.049, cut for the highest 2% near 0.37. This is one part of the list.

tested on: T1, PmTbr T-box DNA-binding domain (GST fusion); assay: PBM E-score of 8-mer (E-score (dimensionless, -0.5 to 0.5)); Tbr is Tbrain of the sea star Patiria miniata (Pm) or the sea urchin Strongylocentrotus purpuratus (Sp); higher = stronger binding preference; most listed sequences are background and not binding sites; conditions: the construct has about 5 more residues each side
T1 sequence: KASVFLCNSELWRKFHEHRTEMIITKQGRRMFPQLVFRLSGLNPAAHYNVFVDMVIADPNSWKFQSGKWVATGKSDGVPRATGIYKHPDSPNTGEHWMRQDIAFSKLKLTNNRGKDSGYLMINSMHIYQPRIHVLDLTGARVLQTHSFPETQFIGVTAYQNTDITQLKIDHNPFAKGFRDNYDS
Procedure: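 Universal protein-binding microarray (Agilent AMADID 016060, 60-bp probes with a 35-bp variable region) incubated with 200 nM GST-fused Patiria miniata Tbr T-box DNA-binding domain (residues 272-466) in PBS pH 7.5. Scored for every ungapped 8-mer (given with its reverse complement) by the Universal PBM Analysis Suite as E-score (modified Wilcoxon-Mann-Whitney enrichment, range -0.5 to 0.5; >0.45 counts as bound) and Z-score of median probe intensity. Two replicate arrays (datasets 1 and 2).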
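Also: 200 nM protein in PBS on universal arrays averaged over duplicate arrays.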

Sequence | PBM E-score of 8-mer
AATCAGTC | -0.204 ± 0.028
CACATTCA | 0.181 ± 0.0026
AGATCTCG | 0.00287 ± 0.029
CCAAAAAC | -0.0619 ± 0.039
AGATTAGA | -0.248 ± 0.023
AAGTTCGT | -0.0611 ± 0.036
GAGCTGCA | 0.0561 ± 0.04
CCGTCATC | -0.122 ± 0.038
ATGATTCA | -0.162 ± 0.029
ATGACCTA | -0.182 ± 0.018
CGCGCCCC | 0.186 ± 0.011
ACTAATCT | -0.0659 ± 0.026
ACACGATC | 0.167 ± 0.035
AGGCTGGA | -0.0369 ± 0.0082
CATCCGCC | -0.105 ± 0.032
CTTTATAC | -0.119 ± 0.091
CAGACTCC | -0.211 ± 0.064
ACAAGTAA | -0.0192 ± 0.036
CGCCAGAC | 0.0964 ± 0.0054
GAATACCC | -0.145 ± 0.004
CTGCGCTA | -0.0165 ± 0.0019
GCCGGAGA | -0.0819 ± 0.037
CCATGACG | -0.187 ± 0.065
AGACGAGC | -0.164 ± 0.074
GCCTCCAA | -0.0538 ± 0.053

Sequence | PBM E-score of 8-mer
TGAAATAA | 0.131 ± 0.11
CTAAAATC | 0.073 ± 0.065
GCTTTTAA | -0.134 ± 0.11
CCGCATCG | -0.0426 ± 0.024
TACGAGAA | -0.145 ± 0.1
TCGCGAAA | 0.409 ± 0.025
GTGGTACA | -0.0592 ± 0.028
AACAGGAG | -0.00971 ± 0.013
CGCGTGAC | 0.342 ± 0.0057
CGACATCC | 0.0836 ± 0.0083
AGATTTCC | -0.061 ± 0.062
AAGGCAAA | -0.179 ± 0.039
ACGTTCTA | -0.0564 ± 0.067
ACCGCTTG | -0.00853 ± 0.018
CAACGGGA | -0.126 ± 0.042
AGTAGAAT | -0.161 ± 0.023
CTGGTCTA | -0.138 ± 0.044
GCCGACTA | -0.000295 ± 0.0049
CACTGGCC | -0.114 ± 0.058
CTCCGCAA | -0.0946 ± 0.021
AGAAGATA | -0.136 ± 0.0022
CGTTTATA | -0.286 ± 0.029
CCATTAAA | -0.239 ± 0.0035
CTTCCGGC | 0.0279 ± 0.046
CCTCGAGG | 0.0461 ± 0.12

Sequence | PBM E-score of 8-mer
CGATACTA | -0.0985 ± 0.048
CACTATCG | 0.177 ± 0.031
TGATGGCA | 0.0656 ± 0.037
AGCTTCGG | -0.159 ± 0.077
ATGATTGC | -0.199 ± 0.02
AGGGGTGC | 0.201 ± 0.011
CATCTGAG | -0.0604 ± 0.046
GATAAGCA | -0.00515 ± 0.047
ACGCAGCA | -0.065 ± 0.017
AGGCACAC | 0.245 ± 0.049
ACGTGACC | 0.157 ± 0.02
GTGAGAGA | 0.319 ± 0.015
CAAAGACC | -0.23 ± 0.05
CACCCATA | 0.227 ± 0.0097
GATGGACA | -0.206 ± 0.033
GAATCGGC | -0.0727 ± 0.071
CCAGGTTA | -0.154 ± 0.091
GTTCAAAA | -0.0917 ± 0.091
ACACCTCA | 0.47047 ± 0.00026
ACCGGCTC | -0.121 ± 0.0038
ACCCTGAG | 0.11 ± 0.021
ATAACTAG | 0.0348 ± 0.041
GACGCACA | 0.0749 ± 0.018
CTATGATC | -0.133 ± 0.0091
TCCGAAAA | -0.00383 ± 0.062

Sequence | PBM E-score of 8-mer
ACTCTCGG | -0.105 ± 0.025
GGATATGA | -0.0273 ± 0.071
CGGAAGAG | 0.0337 ± 0.088
ACCTACGG | -0.00262 ± 0.025
ACAAACTC | 0.153 ± 0.037
AAAAATAC | -0.0485 ± 0.085
CTCTCGAA | 0.135 ± 0.056
GTGAACTA | 0.188 ± 0.012
TGCCGCCA | 0.0857 ± 0.11
GAAGGAAC | -0.147 ± 0.01
AAGTCGGA | -0.3 ± 0.0088
AATCAGAT | -0.0246 ± 0.083
CGTATACG | -0.151 ± 0.11
AACTAGAC | -0.259 ± 0.088
AGCTCGAG | -0.0268 ± 0.023
GAGCGCAC | -0.0637 ± 0.099
GTCATATA | 0.0467 ± 0.0023
GAATTTCC | -0.0723 ± 0.029
ATCAGGCC | -0.343 ± 0.031
CAGAGGCG | 0.219 ± 0.05
TAGTTACA | -0.0997 ± 0.035
AAGTGAAT | -0.019 ± 0.075
CAGTCTTC | -0.134 ± 0.082
CACCCGGC | 0.19 ± 0.0082
GTCCGGAC | -0.133 ± 0.021

Sequence | PBM E-score of 8-mer
CTCGCCAG | 0.11 ± 0.0016
AGAATGAC | -0.0207 ± 0.017
GTTCCAAC | -0.0165 ± 0.035
ACTCGCTG | 0.156 ± 0.024
ACCTCAGG | 0.0765 ± 0.031
ACCAATCG | 0.134 ± 0.0052
CACTCGAA | 0.199 ± 0.035
AGGGAGGG | -0.269 ± 0.053
GGCTATCA | -0.0533 ± 0.075
CTCTACCA | -0.0803 ± 0.032
AGTAGTGA | 0.12 ± 0.00018
AGAGGGAT | -0.24 ± 0.052
GCGGACAA | -0.2 ± 0.023
AAGAGTTG | 0.0135 ± 0.019
AGTATGCA | -0.0701 ± 0.037
CCAATAAA | -0.152 ± 0.032
GACCTGTA | -0.16 ± 0.025
AGTCCGGA | -0.133 ± 0.019
AGTAGCGA | 0.206 ± 0.01
GGAAGCTA | -0.17 ± 0.046
CTGGTTGA | -0.00131 ± 0.03
ACGGCATG | -0.1 ± 0.0089
CACCACGA | 0.00554 ± 0.041
AGACACAG | -0.0132 ± 0.095
CAGTATGA | -0.207 ± 0.006

Sequence | PBM E-score of 8-mer
CGGTATGC | -0.0503 ± 0.063
AAAATAAT | -0.161 ± 0.072
CTCGATAA | 0.0911 ± 0.064
AAAAGAAC | -0.139 ± 0.12
AGACACAT | 0.184 ± 0.0023
CCCCGTCG | -0.107 ± 0.018
ACATTTGG | 0.126 ± 0.011
GTAGCTGA | -0.0719 ± 0.034
GCACAGAC | -0.0257 ± 0.13
CGAAGGTA | 0.0601 ± 0.022
ATAAAGGA | -0.2214 ± 0.0019
ACGCAGAC | -0.187 ± 0.099
ATGGGTGG | -0.00349 ± 0.064
ACCGTTCA | 0.0738 ± 0.014
ATGTGACG | 0.31 ± 0.02
GTGCAAGA | 0.108 ± 0.032
ATTATTCC | -0.2662 ± 0.00095
ACTCACAT | -0.0309 ± 0.043
GCCCGCCC | -0.21 ± 0.071
CACAGTAA | 0.0121 ± 0.1
GTTAACCA | 0.0306 ± 0.001
GAAAGTGC | 0.154 ± 0.035
GCTGAGCA | -0.0778 ± 0.016
CTTTAAGA | -0.256 ± 0.067
GAGCGACA | 0.2353 ± 0.0016

Sequence | PBM E-score of 8-mer
CCAGACCC | -0.0808 ± 0.0004
ACCAGATG | -0.261 ± 0.042
CAGATTCG | 0.0952 ± 0.046
CGGGCCCC | -0.291 ± 0.021
GGTGACAC | 0.4691 ± 0.0035
AGGCGCCA | 0.363 ± 0.0098
CCGAGGGA | -0.236 ± 0.0027
GGGACTCA | -0.363 ± 0.0047
TCGCACGA | 0.324 ± 0.0049
CCTGCTCC | -0.126 ± 0.033
AATCATGA | -0.073 ± 0.025
TCAAGACA | 0.0831 ± 0.0023
AGTTTGGC | 0.11 ± 0.018
AATAAAAG | 0.0212 ± 0.11
CCAAGTCA | 0.0507 ± 0.024
AAAAACTT | -0.093 ± 0.017
CAAACAGG | -0.107 ± 0.034
CAGCGGGC | -0.225 ± 0.021
CAGCTCCA | -0.0434 ± 0.045
AATACAAG | -0.0932 ± 0.0024
CCGCCCCC | -0.19 ± 0.05
CTCGAAAC | -0.0654 ± 0.027
AAGCAAAA | -0.0708 ± 0.028
CACACGGG | 0.16 ± 0.032
GCTTCATA | -0.109 ± 0.011

Sequence | PBM E-score of 8-mer
CTGTGGGA | 0.124 ± 0.032
CAAATACA | -0.164 ± 0.0057
GCGATAGC | 0.218 ± 0.035
TAGAGAAA | -0.2 ± 0.054
CTAATTTC | -0.0627 ± 0.075
ATCGATCC | 0.0015 ± 0.0016
CATGCGCG | 0.149 ± 0.081
ATGCTTGG | -0.135 ± 0.1
CTACGAGA | -0.127 ± 0.026
AGAAGAGA | -0.124 ± 0.08
ATTTTTCA | 0.0346 ± 0.093
AAGAAGTC | 0.0125 ± 0.0032
CCTCCCCG | -0.0393 ± 0.061
TAACCGCA | -0.0839 ± 0.031
AGGAATTA | -0.222 ± 0.037
CGATCAAA | -0.0882 ± 0.061
AATGGAGC | -0.227 ± 0.0096
GGTCCGAC | -0.117 ± 0.024
GGGTTAAA | -0.245 ± 0.033
CTTCTGTA | 0.0317 ± 0.032
CAGTTTCG | -0.0351 ± 0.088
GCGACCGA | 0.0508 ± 0.085
AACTTCCC | -0.0518 ± 0.071
CGAGAAAG | 0.0893 ± 0.019
AAGTTTGC | 0.0555 ± 0.13

Sequence | PBM E-score of 8-mer
CGAGCAGA | -0.129 ± 0.0091
GCCGCGGC | -0.135 ± 0.062
AACGCACA | 0.0559 ± 0.0019
ATCATGGA | -0.277 ± 0.034
ATTTCCTC | -0.0319 ± 0.022
CATAGCGG | -0.00624 ± 0.058
AACTCGTA | 0.0893 ± 0.082
CGCTCTGC | -0.0795 ± 0.086
AGATATCA | 0.124 ± 0.067
TGGTATAA | -0.214 ± 0.15
GAACTTCC | -0.179 ± 0.032
CATAACGC | 0.167 ± 0.0098
CATAGCGC | 0.122 ± 0.03
AAGCTCAG | -0.0772 ± 0.0017
TAAGCTCA | -0.121 ± 0.092
AAACGAAA | -0.182 ± 0.12
CGTTTGAG | -0.258 ± 0.075
CCACACGA | 0.0258 ± 0.03
TAGGAACA | 0.00458 ± 0.053
